# Measured values published in ChEMBL document CHEMBL1201862, “PubChem BioAssay data set” (2004).
# Several values for one entry are separate records, joined by “and”; a condition that tells them apart may be missing. Identical values can stand only once.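 A five-concentration, 48-hour dose response in 96-well plates underlies each endpoint, interpolated linearly between surrounding concentrations. Here, GI50 denotes the concentration required for 50% inhibition of growth.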 Activity calls are given as the source filed them. Rule as the data show it: active = GI50 up to about 1.1 µM and inactive = higher.
# System: NCI-H322M
# Assay: NCI anticancer screen, dose series, 48 h
row,Compound,GI50
1,COC1=CC(=O)c2c(cc(COP(N)(=O)N(CCCl)CCCl)n2C)C1=O (stereo not given),inactive: 2.69 µM
2,Nc1cc(Cl)ccc1SSc1ccc(Cl)cc1N,inactive: 15.2 µM
3,O=C(O)/C=C/c1c[nH]cn1,inactive: > 336 µM
4,COc1c(O)ccc2c1CN1CCc3cc4c(cc3C1C2)OCO4 (stereo not given),inactive: 22.8 µM
5,CC1(C)N=C(N)N=C(N)N1c1ccc(OCCCOc2ccccc2)c(Cl)c1,active: 0.237 µM
6,CCn1c2ccccc2c2cc(NC(=O)c3c(C)[nH]c(=O)[nH]c3=S)ccc21,inactive: 56.1 µM
7,CC(=O)OCC1OC(n2c(-c3ccccc3)cc(-c3ccco3)c(C#N)c2=O)C(OC(C)=O)C(OC(C)=O)C1OC(C)=O (stereo not given),inactive: 59.8 µM and inactive: 37.7 µM
8,O=C(CCl)N1CCCCC1C1(c2cc3ccccc3[nH]2)OCCO1 (stereo not given),inactive: 5.16 µM
9,CN1N=C(c2ccncc2)OC1c1cccc(C(F)(F)F)c1 (stereo not given),inactive: > 100 µM
10,O=C(Nc1cccc([N+](=O)[O-])c1)C(=O)C(C(=O)c1ccccc1F)C1OC(=O)C2C=CC=CC21 (stereo not given),inactive: 29.3 µM
11,CS(=O)(=O)c1nc(Cl)c(Cl)c(C#N)c1Cl,inactive: 17.7 µM
12,CCOC(=O)c1sc2nc(SC)nc(Nc3ccc4c(c3)OCO4)c2c1N,inactive: 26.4 µM
13,O=c1c(Sc2ncccn2)c(Sc2ncccn2)cnn1CCl,inactive: 16.4 µM
14,Cc1cc2nc(O)c(CCC(=O)O)nc2cc1C,inactive: > 100 µM
15,O=c1c2ccccc2[nH]c2c(Cl)cc(Cl)c(N3CCCCC3)c12,inactive: 37.6 µM
16,Cc1cc(O)nc(NNC(C#N)c2ccc([N+](=O)[O-])cc2)n1 (stereo not given),inactive: 94 µM
17,CCN(CC)CCCC(C)NC(=O)c1cc(-c2nccn2C)nc2ccc(C)cc12 (stereo not given),inactive: > 100 µM
18,COc1cc(C)c(/C=C/C(=O)N2C(=O)OC[C@@H]2c2ccccc2)c(C)c1,inactive: > 100 µM
19,S=C(N1CCN(c2ccccc2)CC1)N1CCN(c2ccccc2)CC1,inactive: > 100 µM
20,CCOC(=O)C(=O)NNc1nc2c(s1)C(=O)c1ccccc1C2=O,inactive: 15.8 µM
21,O=C1NC2OC(CO)C(O)C(O1)C2O (stereo not given),inactive: > 100 µM
22,CC(C)CNC(=O)c1c(NC(=O)c2ccccc2)sc2[nH]c(=O)n(-c3ccccc3)c(=O)c12,inactive: > 100 µM
23,C=C(COC(C)=O)CC(/C=C(\C)CC/C=C(\C)CO)OC(C)=O (stereo not given),inactive: > 100 µM

row,Compound,GI50
1,COc1ccc(/C(Cl)=C(\C=O)c2ccc(F)cc2)cc1OC,inactive: 19.3 µM
2,COc1ccc(Br)c2c1CC(C(=O)O)CC2 (stereo not given),inactive: > 100 µM
3,CCN(CC)c1ccc(C2Nc3ccc4ccccc4c3C3=C2C(=O)CCC3)cc1 (stereo not given),inactive: > 100 µM
4,COC[C@@H](/N=C/N1CCc2cc(OC)c(OC)cc2[C@@H]1C)C(C)(C)C,inactive: > 100 µM
5,COC(=O)c1c(C)ccc2c(O)c3c(cc12)C(=O)c1c2c(cc(O)c1C3=O)C1(C)OC(C)(O2)C(O)C(N(C)C)C1O (stereo not given),inactive: 1.64 µM
6,Cc1cc(C)c2c(n1)S(=O)(=O)N(CCCN1CCN(c3cccc(Cl)c3)CC1)C(C(=O)c1ccc(Br)cc1)=C2O,inactive: 18.1 µM
7,Cc1cc([C@H](C#N)c2nc3ccccc3[nH]2)nc(Cl)n1,inactive: 23.8 µM
8,COc1cc2c(c(OC)c1)C(=O)O[C@H](C)CCCC/C=C/C2,inactive: 32.4 µM
9,O=C(Cc1ccccc1)NNc1nc(NNC(=O)c2ccncc2)nc(Nc2cccc(Cl)c2)n1,inactive: > 10 µM
10,COC1(OC)C[C@H](C)[C@@]23O[C@]24c2cc(O)c5c(c2N[C@H]3C#C/C=C\C#C[C@]14O)C(=O)c1ccccc1C5=O,active: 0.0168 µM
11,CCN(CC)C(=S)SC1C(=O)NC(=O)NC1=O,inactive: > 100 µM
12,Nc1ccc(C(=O)N/C(=C\c2cccc([N+](=O)[O-])c2)c2nc3ccccc3[nH]2)cc1,inactive: > 100 µM
13,C=C1C(C)C2C(Cc3ccccc3)NC(=O)C23OC(=O)/C=C\CC(=O)CCC(C)C/C=C/C3C1O (stereo not given),inactive: 10.2 µM
14,OCC(O)C(O)C(C=NNc1ncnc2ccc(Br)cc12)=NNc1ncnc2ccc(Br)cc12 (stereo not given),inactive: 1.18 µM
15,CC(=O)CC(C)(C)NC(=O)[C@@]1(O)CC[C@H]2[C@@H]3CCC4=CC(=O)CC[C@@H]4[C@H]3CC[C@@]21C,inactive: > 100 µM
16,CC(=O)Oc1c(C)c(-c2ccccc2)c(C)c(-c2ccccc2)c1C(=S)c1ccccc1,inactive: > 100 µM
17,CN(C)CCNC(=O)c1cccc(C(=O)Nc2ccccc2)c1[N+](=O)[O-],inactive: > 100 µM
18,C=CCc1cc(-c2cc(CC=C)c(O)c(CNCCCl)c2)cc(CNCCCl)c1O,inactive: 31.3 µM
19,COC(=O)/C(=N/O)C(C(=O)C=C(C)C)C(=O)C(=O)Nc1nc2ccc([N+](=O)[O-])cc2s1 (stereo not given),inactive: 37.3 µM
20,CN(CCCNC(=O)c1cn(C)c2c1Cc1ccccc1-2)CCCNC(=O)c1cn(C)c2c1Cc1ccccc1-2,inactive: 11.4 µM
21,COc1ccc2c(c1)CCC/C2=N\NS(=O)(=O)c1c(C)cc(C)cc1C,inactive: 31 µM
22,Cc1cccc(C)c1NC(=O)CCCC(=O)C1/C(=N/NC(=O)CC#N)CCC/C1=N\NC(=O)CC#N (stereo not given),inactive: > 100 µM
23,C[Si](C)(C)c1ccc(CC2(Cc3ccc([Si](C)(C)C)cc3)CCNC2)cc1,inactive: 3.75 µM

row,Compound,GI50
1,CO/C(=N\N=C\c1ccc(Cl)cc1Cl)c1ccncc1,inactive: > 10 µM
2,NC(=O)N/N=C1/c2ccccc2-n2nccc21,inactive: > 100 µM
3,CCCCCCCCNC(=O)SCCCC,inactive: 77.3 µM
4,CN(C)C(=O)Oc1ccc(C(=S)Nc2ccccc2)cc1Br,inactive: 41.8 µM
5,CCCNC(/C=C/[Si](C)(C)C)CO.CCCNCC(O)/C=C/[Si](C)(C)C (stereo not given),inactive: > 100 µM
6,COC(=O)c1cc2cc(OC)c(OC)cc2cc(C(=O)OC)c1=O,inactive: > 100 µM
7,CCCN(CCCc1ccccc1)CCc1ccc2[nH]c(=S)[nH]c2c1,inactive: 49.3 µM
8,CC(=O)OCC12C(OC(C)=O)C(=O)C3C(OC(C)=O)C14OC3(C)COC(=O)c1cccnc1C(C)C(C)C(=O)OC(C(OC(C)=O)C2OC(C)=O)C4(C)O (stereo not given),inactive: > 100 µM
9,COc1cc(/C=C/C(=O)O)ccc1C(=O)OCc1ccccc1,inactive: > 100 µM
10,Cc1ccc(/N=N/C(=N/c2ccccc2)c2ccc(N(CCC#N)CCC#N)cc2)cc1,inactive: 51.1 µM
11,COP(=O)(OC)[C@@](O)(c1ccccc1)[C@@H](O)[C@H](O)c1ccccc1,inactive: > 100 µM
12,Brc1ccc2c(-c3csc(-c4c[nH]c5ccc(Br)cc45)n3)c[nH]c2c1,inactive: 4.83 µM
13,O=c1[nH]c(=O)n(C2OC(CO)C(O)C2O)cc1OCC(F)(F)F (stereo not given),inactive: > 100 µM
14,COC(=O)[C@]12CC[C@H]3CN(C(=O)OCc4ccccc4)[C@H]([C@H]31)[C@H](c1ccco1)N2,inactive: > 100 µM
15,CCCCCCCC(=O)NS(=O)(=O)c1ccccc1,inactive: > 100 µM
16,COc1ccc([C@]23CCN(S(=O)(=O)c4ccc(C)cc4)[C@H]2[C@H](CO)C2(CC3)OCC(C)(C)CO2)cc1OC,inactive: > 100 µM
17,COc1ccc(NC(=O)CC(=O)N2N=C(N(c3ccccc3)c3ccccc3)CC2c2ccccc2)cc1 (stereo not given),inactive: > 100 µM
18,N=C(N)NCCCC(NC(=O)c1cccc2c(=O)c3ccccc3[nH]c12)C(=O)O (stereo not given),inactive: > 100 µM
19,CC(=O)Oc1ccc2c(c1)CC[C@@H]1C2[C@@H](O[N+](=O)[O-])C[C@@]2(C)C1CC[C@@H]2O (stereo not given in full),inactive: 41 µM
20,CCOC(=O)C1=C(C(=O)OCC)SC2(S1)C(C(=O)OCC)=C(C(=O)OCC)Sc1c2ssc1=O,inactive: 11 µM
21,C#CCCOC(=O)c1ccccc1OC(C)=O,inactive: > 100 µM
22,Cc1cc(N2CCCC2)c([N+](=O)[O-])cc1[N+](=O)[O-],inactive: > 100 µM
23,COC(=O)[C@H](Cc1c[nH]c2ccccc12)NC(=O)c1ccc(CNC(=O)/C(C)=C/c2ccccc2)cc1,inactive: 29.7 µM

row,Compound,GI50
1,COc1cccc(-c2ccc3c4c2O[C@H]2c5[nH]c6ccccc6c5C[C@@]5(O)[C@@H](C3)N(CC3CC3)CC[C@]425)c1,inactive: 2.23 µM
2,NC(=O)CC(N)c1nnn[nH]1 (stereo not given),inactive: > 100 µM
3,Cc1nc2ccc(S(=O)(=O)Nc3ccc(Cl)cc3)cc2c(=O)n1NC(=O)CNc1ccc(Cl)cc1,inactive: > 100 µM
4,O=C1Nc2ccccc2Nc2ccncc21,inactive: > 100 µM
5,CCCCNC(=O)CCN(C(=O)O)S(=O)(=O)c1ccc(NC(=O)c2ccccc2)cc1,inactive: > 100 µM
6,N#CC(NNC(=O)c1ccccc1O)c1ccc(O)cc1 (stereo not given),inactive: 9.55 µM
7,Cc1cc(OC2OC(CO)C(O)C(O)C2O)ccc1O (stereo not given),inactive: > 100 µM
8,Cc1nnc(N)nc1/C=C/c1c(O)ccc2ccccc12,inactive: 28.3 µM
9,COc1ccc(OC)c(CSc2ccc(OC)c(OC)c2)c1,inactive: > 100 µM
10,CCOC(=O)CC(C)C1(C=O)CCCCC1=O (stereo not given),inactive: > 100 µM
11,N#CCCn1[nH]c(=O)c(Cl)c(Cl)c1=O,inactive: 16.6 µM
12,C=C1C(=O)O[C@H]2[C@H]3O[C@@H](C[C@@H]12)[C@](C)(O)CC[C@@H]1O[C@@]1(C)CCC[C@H]3C,inactive: 29.6 µM
13,CN1N=C2c3ccccc3CC[C@H]2C1c1cccc(O)c1 (stereo not given in full),inactive: > 100 µM
14,CC(C)(C)OC(=O)C#CC[C@H]1CCCC1/C=C/C(O)=C1/C(=O)NC(CCCNC(=O)OC(C)(C)C)C1=O (stereo not given in full),inactive: 87.9 µM
15,O=C(O)CCNc1[nH]cnc2ncnc1-2,inactive: > 100 µM
16,COc1cc(C(=O)N[C@H]2CCc3cc(OC)c(OC)c(OC)c3-c3ccc(SC)c(=O)cc32)cc(OC)c1OC,active: 0.01 µM
17,COc1ccc(CC(C#N)c2cc(OC)c(OC)c(OC)c2)cc1 (stereo not given),active: 0.133 µM
18,Cc1[nH]n(C(=N)N)c(=O)c1CCO,inactive: > 100 µM
19,c1ccc2c(c1)-c1ccccc1C2NC1=NCCO1,inactive: 35.5 µM
20,Cn1cnc([N+](=O)[O-])c1Sc1nc2ccccc2o1,inactive: 16.8 µM
21,COc1cc2c(cc1OC)-c1c3c(cc4c1[C@@H](C2)N(C)CC4)OCO3,inactive: 2.9 µM
